For assay [1], the target named is T1, recombinant GST-USP13 protein (UniProt Q92995).
T1 sequence: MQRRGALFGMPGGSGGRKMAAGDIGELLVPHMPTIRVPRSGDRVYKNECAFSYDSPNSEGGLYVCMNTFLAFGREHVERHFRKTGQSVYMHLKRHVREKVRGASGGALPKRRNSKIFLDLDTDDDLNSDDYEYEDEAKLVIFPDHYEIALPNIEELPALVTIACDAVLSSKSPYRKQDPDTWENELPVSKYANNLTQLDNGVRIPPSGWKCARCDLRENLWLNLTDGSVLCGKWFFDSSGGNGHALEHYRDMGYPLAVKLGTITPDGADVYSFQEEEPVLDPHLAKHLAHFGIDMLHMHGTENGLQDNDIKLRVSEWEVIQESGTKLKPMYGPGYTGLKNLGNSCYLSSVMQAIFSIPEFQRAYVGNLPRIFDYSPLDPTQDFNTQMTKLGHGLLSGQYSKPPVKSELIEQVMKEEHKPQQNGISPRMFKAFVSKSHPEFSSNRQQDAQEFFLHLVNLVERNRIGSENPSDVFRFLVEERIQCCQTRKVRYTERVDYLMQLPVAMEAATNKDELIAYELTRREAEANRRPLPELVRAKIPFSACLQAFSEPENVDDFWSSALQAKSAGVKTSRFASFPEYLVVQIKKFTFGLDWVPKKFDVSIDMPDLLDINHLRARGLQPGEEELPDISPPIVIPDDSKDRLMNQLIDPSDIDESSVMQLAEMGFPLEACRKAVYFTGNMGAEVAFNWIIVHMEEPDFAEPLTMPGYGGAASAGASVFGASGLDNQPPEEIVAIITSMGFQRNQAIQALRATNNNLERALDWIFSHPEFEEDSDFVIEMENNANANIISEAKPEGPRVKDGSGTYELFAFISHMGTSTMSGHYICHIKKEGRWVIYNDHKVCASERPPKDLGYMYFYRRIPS
In words: pull-down; GST-USP13 from E. coli BL21 (DE3) purified on Glutathione Sepharose beads; cyclin D1 expression vector transfected into HEK293T cells; only the target purified.

The chains behind the UniProt entries cited, without tags or fusion partners. Where a name states a change or a piece, a line headed by the entry shows the natural chain unless it says otherwise.
UniProt P24385: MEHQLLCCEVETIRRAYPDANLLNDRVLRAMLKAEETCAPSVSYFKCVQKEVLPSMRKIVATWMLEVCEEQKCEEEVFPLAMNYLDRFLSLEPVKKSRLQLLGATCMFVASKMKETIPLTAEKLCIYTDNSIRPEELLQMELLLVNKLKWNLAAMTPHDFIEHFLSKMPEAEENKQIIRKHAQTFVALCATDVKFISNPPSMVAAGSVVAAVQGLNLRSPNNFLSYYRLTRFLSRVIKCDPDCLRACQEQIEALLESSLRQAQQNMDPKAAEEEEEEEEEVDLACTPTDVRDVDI
UniProt P30279: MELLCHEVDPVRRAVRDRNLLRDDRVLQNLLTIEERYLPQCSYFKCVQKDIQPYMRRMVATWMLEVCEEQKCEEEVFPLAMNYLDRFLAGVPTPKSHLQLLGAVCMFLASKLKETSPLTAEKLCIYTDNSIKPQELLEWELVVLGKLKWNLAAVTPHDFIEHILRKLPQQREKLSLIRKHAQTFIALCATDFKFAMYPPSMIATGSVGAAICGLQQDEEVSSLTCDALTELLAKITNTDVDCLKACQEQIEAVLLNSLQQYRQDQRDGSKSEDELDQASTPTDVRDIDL
UniProt P30281: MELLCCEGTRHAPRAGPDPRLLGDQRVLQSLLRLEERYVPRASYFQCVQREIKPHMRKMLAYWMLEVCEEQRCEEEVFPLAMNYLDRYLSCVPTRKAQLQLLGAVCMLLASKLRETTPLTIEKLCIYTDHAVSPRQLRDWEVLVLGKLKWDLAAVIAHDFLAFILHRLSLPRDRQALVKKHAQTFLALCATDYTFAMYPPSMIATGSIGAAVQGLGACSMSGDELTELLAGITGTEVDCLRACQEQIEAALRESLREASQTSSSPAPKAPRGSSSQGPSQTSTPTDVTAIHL

Assay [2] has as its target T2, Flag-tagged USP13 (ubiquitin-specific protease 13), wild type (UniProt Q92995).
T2 sequence: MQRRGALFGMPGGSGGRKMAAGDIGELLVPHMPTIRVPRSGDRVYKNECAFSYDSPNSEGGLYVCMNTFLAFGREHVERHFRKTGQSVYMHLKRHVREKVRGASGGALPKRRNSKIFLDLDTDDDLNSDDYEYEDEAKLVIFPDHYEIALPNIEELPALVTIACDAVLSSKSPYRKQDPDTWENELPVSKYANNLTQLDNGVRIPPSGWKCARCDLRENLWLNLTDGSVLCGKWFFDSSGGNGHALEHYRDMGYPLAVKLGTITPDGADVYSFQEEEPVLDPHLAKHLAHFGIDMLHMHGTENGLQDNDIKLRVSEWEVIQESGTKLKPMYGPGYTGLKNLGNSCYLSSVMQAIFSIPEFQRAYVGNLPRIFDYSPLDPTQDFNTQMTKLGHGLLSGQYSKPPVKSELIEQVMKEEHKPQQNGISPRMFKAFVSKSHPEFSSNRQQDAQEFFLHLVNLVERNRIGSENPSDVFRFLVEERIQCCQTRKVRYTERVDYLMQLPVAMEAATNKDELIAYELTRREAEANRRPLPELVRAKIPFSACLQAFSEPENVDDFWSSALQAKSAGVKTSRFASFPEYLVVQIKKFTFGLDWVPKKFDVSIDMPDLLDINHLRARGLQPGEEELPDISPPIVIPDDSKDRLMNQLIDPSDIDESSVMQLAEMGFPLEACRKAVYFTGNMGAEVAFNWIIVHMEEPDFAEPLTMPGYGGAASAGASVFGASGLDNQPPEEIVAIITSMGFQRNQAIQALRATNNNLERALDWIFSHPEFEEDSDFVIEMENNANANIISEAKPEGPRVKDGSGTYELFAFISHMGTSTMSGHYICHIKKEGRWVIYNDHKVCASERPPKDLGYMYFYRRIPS
In words: co-IP; exogenous Co-IP: HEK293T or GC cells transfected for 48 h; IP lysis buffer 50 mM Tris-HCl pH 8.0, 150 mM NaCl, 10 mM KCl, 1.5 mM MgCl2, 0.5% NP-40, 10% glycerol, 1 mM EDTA; anti-Flag or anti-Myc antibody, Protein A/G magnetic beads overnight at 4 °C; immunoblot. Background: Immunoblotting shows a protein as a band on a membrane.

Assay [3] deals with T3, USP13, endogenous (human (endogenous in HEK293T and GC cells)) (UniProt Q92995).
T3 sequence: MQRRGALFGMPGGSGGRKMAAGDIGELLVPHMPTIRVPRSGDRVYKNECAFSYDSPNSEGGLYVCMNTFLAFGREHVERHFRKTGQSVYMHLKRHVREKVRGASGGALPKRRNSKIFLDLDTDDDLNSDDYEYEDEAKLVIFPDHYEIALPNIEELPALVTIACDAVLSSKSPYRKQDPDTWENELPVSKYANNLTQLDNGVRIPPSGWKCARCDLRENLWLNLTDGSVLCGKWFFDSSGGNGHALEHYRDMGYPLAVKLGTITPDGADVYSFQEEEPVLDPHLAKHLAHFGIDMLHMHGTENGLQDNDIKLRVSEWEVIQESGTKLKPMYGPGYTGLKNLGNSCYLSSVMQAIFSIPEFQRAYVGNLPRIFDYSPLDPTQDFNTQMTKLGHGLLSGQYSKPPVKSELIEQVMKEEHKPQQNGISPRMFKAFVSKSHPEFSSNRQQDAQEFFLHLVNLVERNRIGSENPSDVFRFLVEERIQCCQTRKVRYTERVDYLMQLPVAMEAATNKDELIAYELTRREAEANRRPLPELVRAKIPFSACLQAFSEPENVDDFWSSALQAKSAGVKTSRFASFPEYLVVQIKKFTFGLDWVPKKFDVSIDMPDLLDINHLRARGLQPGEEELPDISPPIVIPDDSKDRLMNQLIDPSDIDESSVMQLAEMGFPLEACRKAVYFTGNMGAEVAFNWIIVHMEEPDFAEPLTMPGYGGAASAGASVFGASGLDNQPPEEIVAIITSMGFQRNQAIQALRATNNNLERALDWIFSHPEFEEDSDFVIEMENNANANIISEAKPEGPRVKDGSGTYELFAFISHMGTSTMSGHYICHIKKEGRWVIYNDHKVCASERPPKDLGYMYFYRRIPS
The experiment in a line: co-IP; endogenous IP from HEK293T and GC cells with anti-USP13 or anti-cyclin D1 antibody, Protein A/G magnetic beads overnight at 4 °C; immunoblot.

Assay [4] has as its target Myc-tagged cyclin D1, wild type (UniProt P24385). The experiment in a line: co-IP; exogenous Co-IP: HEK293T or GC cells transfected for 48 h; IP lysis buffer 50 mM Tris-HCl pH 8.0, 150 mM NaCl, 10 mM KCl, 1.5 mM MgCl2, 0.5% NP-40, 10% glycerol, 1 mM EDTA; anti-Flag or anti-Myc antibody, Protein A/G magnetic beads overnight at 4 °C; immunoblot.
Assay [5] addresses cyclin D1, endogenous (human (endogenous in HEK293T and GC cells)) (UniProt P24385). The experiment in a line: co-IP; endogenous IP from HEK293T and GC cells with anti-USP13 or anti-cyclin D1 antibody, Protein A/G magnetic beads overnight at 4 °C; immunoblot.

Results are given in words; binding and its absence hold for the method and conditions named. Binding seen in cells or lysates may run through a third protein. Some results given as binding are weak or reduced against the parent protein; the word gives no strength. For some of these results: Where a sequence is shown, tags or fusion partners need not be part of it.

“Myc-tagged cyclin D1, wild type (from UniProt P24385 1-295)”: the binding entry in assay [1] and in assay [2] was “binds” each time.
In the case of “cyclin D1 N-terminal domain (aa 1-153) deletion mutant (from UniProt P24385 1-153) (domain or fragment)”, the binding result in assay [2] is reported as “binds”.
“cyclin D1, endogenous (from UniProt P24385 1-295)”: the binding result in assay [3] is “binds”.
On the same count and under the same terms, to “cyclin D2, endogenous (from UniProt P30279 1-289)” belongs “no binding”; to “cyclin D3, endogenous (from UniProt P30281 1-292)”, “no binding”.

B1: Flag-tagged USP13 (ubiquitin-specific protease 13), wild type (enzyme, UniProt Q92995 1-863)
chain: MQRRGALFGMPGGSGGRKMAAGDIGELLVPHMPTIRVPRSGDRVYKNECAFSYDSPNSEGGLYVCMNTFLAFGREHVERHFRKTGQSVYMHLKRHVREKVRGASGGALPKRRNSKIFLDLDTDDDLNSDDYEYEDEAKLVIFPDHYEIALPNIEELPALVTIACDAVLSSKSPYRKQDPDTWENELPVSKYANNLTQLDNGVRIPPSGWKCARCDLRENLWLNLTDGSVLCGKWFFDSSGGNGHALEHYRDMGYPLAVKLGTITPDGADVYSFQEEEPVLDPHLAKHLAHFGIDMLHMHGTENGLQDNDIKLRVSEWEVIQESGTKLKPMYGPGYTGLKNLGNSCYLSSVMQAIFSIPEFQRAYVGNLPRIFDYSPLDPTQDFNTQMTKLGHGLLSGQYSKPPVKSELIEQVMKEEHKPQQNGISPRMFKAFVSKSHPEFSSNRQQDAQEFFLHLVNLVERNRIGSENPSDVFRFLVEERIQCCQTRKVRYTERVDYLMQLPVAMEAATNKDELIAYELTRREAEANRRPLPELVRAKIPFSACLQAFSEPENVDDFWSSALQAKSAGVKTSRFASFPEYLVVQIKKFTFGLDWVPKKFDVSIDMPDLLDINHLRARGLQPGEEELPDISPPIVIPDDSKDRLMNQLIDPSDIDESSVMQLAEMGFPLEACRKAVYFTGNMGAEVAFNWIIVHMEEPDFAEPLTMPGYGGAASAGASVFGASGLDNQPPEEIVAIITSMGFQRNQAIQALRATNNNLERALDWIFSHPEFEEDSDFVIEMENNANANIISEAKPEGPRVKDGSGTYELFAFISHMGTSTMSGHYICHIKKEGRWVIYNDHKVCASERPPKDLGYMYFYRRIPS
Consider B1, for which, in assay [4], the binding result was “binds”.

B2: USP13, endogenous (enzyme, UniProt Q92995 1-863)
chain: MQRRGALFGMPGGSGGRKMAAGDIGELLVPHMPTIRVPRSGDRVYKNECAFSYDSPNSEGGLYVCMNTFLAFGREHVERHFRKTGQSVYMHLKRHVREKVRGASGGALPKRRNSKIFLDLDTDDDLNSDDYEYEDEAKLVIFPDHYEIALPNIEELPALVTIACDAVLSSKSPYRKQDPDTWENELPVSKYANNLTQLDNGVRIPPSGWKCARCDLRENLWLNLTDGSVLCGKWFFDSSGGNGHALEHYRDMGYPLAVKLGTITPDGADVYSFQEEEPVLDPHLAKHLAHFGIDMLHMHGTENGLQDNDIKLRVSEWEVIQESGTKLKPMYGPGYTGLKNLGNSCYLSSVMQAIFSIPEFQRAYVGNLPRIFDYSPLDPTQDFNTQMTKLGHGLLSGQYSKPPVKSELIEQVMKEEHKPQQNGISPRMFKAFVSKSHPEFSSNRQQDAQEFFLHLVNLVERNRIGSENPSDVFRFLVEERIQCCQTRKVRYTERVDYLMQLPVAMEAATNKDELIAYELTRREAEANRRPLPELVRAKIPFSACLQAFSEPENVDDFWSSALQAKSAGVKTSRFASFPEYLVVQIKKFTFGLDWVPKKFDVSIDMPDLLDINHLRARGLQPGEEELPDISPPIVIPDDSKDRLMNQLIDPSDIDESSVMQLAEMGFPLEACRKAVYFTGNMGAEVAFNWIIVHMEEPDFAEPLTMPGYGGAASAGASVFGASGLDNQPPEEIVAIITSMGFQRNQAIQALRATNNNLERALDWIFSHPEFEEDSDFVIEMENNANANIISEAKPEGPRVKDGSGTYELFAFISHMGTSTMSGHYICHIKKEGRWVIYNDHKVCASERPPKDLGYMYFYRRIPS
As for B2, the binding entry in assay [5] is “binds”.

B3: Flag-tagged USP13 truncated mutant with the UBA domain deleted (domain or fragment, UniProt Q92995 1-624)
chain: MQRRGALFGMPGGSGGRKMAAGDIGELLVPHMPTIRVPRSGDRVYKNECAFSYDSPNSEGGLYVCMNTFLAFGREHVERHFRKTGQSVYMHLKRHVREKVRGASGGALPKRRNSKIFLDLDTDDDLNSDDYEYEDEAKLVIFPDHYEIALPNIEELPALVTIACDAVLSSKSPYRKQDPDTWENELPVSKYANNLTQLDNGVRIPPSGWKCARCDLRENLWLNLTDGSVLCGKWFFDSSGGNGHALEHYRDMGYPLAVKLGTITPDGADVYSFQEEEPVLDPHLAKHLAHFGIDMLHMHGTENGLQDNDIKLRVSEWEVIQESGTKLKPMYGPGYTGLKNLGNSCYLSSVMQAIFSIPEFQRAYVGNLPRIFDYSPLDPTQDFNTQMTKLGHGLLSGQYSKPPVKSELIEQVMKEEHKPQQNGISPRMFKAFVSKSHPEFSSNRQQDAQEFFLHLVNLVERNRIGSENPSDVFRFLVEERIQCCQTRKVRYTERVDYLMQLPVAMEAATNKDELIAYELTRREAEANRRPLPELVRAKIPFSACLQAFSEPENVDDFWSSALQAKSAGVKTSRFASFPEYLVVQIKKFTFGLDWVPKKFDVSIDMPDLLDINHLRARGLQPGEE
Turning to B3, the binding result in assay [4] was “no binding”.

B4: Flag-tagged USP13 truncated mutant containing the UBA domain (aa 625-863) (domain or fragment, UniProt Q92995 625-863)
chain: ELPDISPPIVIPDDSKDRLMNQLIDPSDIDESSVMQLAEMGFPLEACRKAVYFTGNMGAEVAFNWIIVHMEEPDFAEPLTMPGYGGAASAGASVFGASGLDNQPPEEIVAIITSMGFQRNQAIQALRATNNNLERALDWIFSHPEFEEDSDFVIEMENNANANIISEAKPEGPRVKDGSGTYELFAFISHMGTSTMSGHYICHIKKEGRWVIYNDHKVCASERPPKDLGYMYFYRRIPS
Consider B4, for which the binding entry in assay [4] is on record as “binds”.

The values above are taken from publication PMC10348911.
